Source: the supplement of paper PMC11022549
MIC (lowest dose with no growth) of environmental A. fumigatus isolates, CLSI broth microdilution in RPMI 1640, up to 16 µg/mL, 48 h at 37 °C, mean of two or three runs; higher = less susceptible. No active / inactive call per row; the paper counts tebuconazole above 3, itraconazole and voriconazole above 2 and posaconazole above 0.25 µg/mL as resistant. The source writes 17 for growth at the top dose; shown as '>' 16, and '>=' 16 where runs were 16 and above. cyp51A changes are as printed. Isolates are numbered anew.

Experiments:
Test in all cases: CLSI broth microdilution in RPMI 1640, up to 16 µg/mL, 48 h at 37 °C; full growth inhibition.
posaconazole = compound: CC[C@@H]([C@H](C)O)n1ncn(-c2ccc(N3CCN(c4ccc(OC[C@@H]5CO[C@@](Cn6cncn6)(c6ccc(F)cc6F)C5)cc4)CC3)cc2)c1=O [posaconazole]
voriconazole = compound: C[C@@H](c1ncncc1F)[C@](O)(Cn1cncn1)c1ccc(F)cc1F [voriconazole]
tebuconazole = compound: CC(C)(C)C(O)(CCc1ccc(Cl)cc1)Cn1cncn1 [tebuconazole]
itraconazole = compound: CCC(C)n1ncn(-c2ccc(N3CCN(c4ccc(OCC5COC(Cn6cncn6)(c6ccc(Cl)cc6Cl)O5)cc4)CC3)cc2)c1=O [itraconazole]

Test System: Aspergillus fumigatus isolate 44 (cyp51A: T248N/E255D)
- MIC (posaconazole): 0.5 µg/mL
- MIC (voriconazole): 0.75 µg/mL
- MIC (tebuconazole): 3 µg/mL
- MIC (itraconazole): 2 µg/mL

Test System: Aspergillus fumigatus isolate 45 (cyp51A: TR34/Y46F/L98H/V172M/T248N/E255D/K427E)
- MIC (posaconazole): 1.5 µg/mL
- MIC (voriconazole): 4 µg/mL
- MIC (tebuconazole): > 16 µg/mL
- MIC (itraconazole): > 16 µg/mL

Test System: Aspergillus fumigatus isolate 46 (cyp51A: TR46/Y46F/Y121F/V172M/T248N/E255D/T289A/K427E)
- MIC (posaconazole): 1 µg/mL
- MIC (voriconazole): ≥ 16 µg/mL
- MIC (tebuconazole): ≥ 16 µg/mL
- MIC (itraconazole): 1.5 µg/mL

Test System: Aspergillus fumigatus isolate 47 (cyp51A: Y46F/V172M/T248N/E255D/K427E)
- MIC (posaconazole): 1 µg/mL
- MIC (voriconazole): 2 µg/mL
- MIC (tebuconazole): 8 µg/mL
- MIC (itraconazole): 3 µg/mL

Test System: Aspergillus fumigatus isolate 48 (cyp51A: TR34/Y46F/L98H/V172M/T248N/E255D/K427E)
- MIC (posaconazole): 1 µg/mL
- MIC (voriconazole): 3.33 µg/mL
- MIC (tebuconazole): 13.3 µg/mL
- MIC (itraconazole): 5.33 µg/mL

Test System: Aspergillus fumigatus isolate 49 (cyp51A: Y46F/V172M/T248N/E255D/K427E)
- MIC (posaconazole): 0.5 µg/mL
- MIC (voriconazole): 1 µg/mL
- MIC (tebuconazole): 6 µg/mL
- MIC (itraconazole): 3 µg/mL

Test System: Aspergillus fumigatus isolate 52 (cyp51A: TR46/Y46F/Y121F/V172M/T248N/E255D/T289A/K427E)
- MIC (posaconazole): 1 µg/mL
- MIC (voriconazole): > 16 µg/mL
- MIC (tebuconazole): > 16 µg/mL
- MIC (itraconazole): 1.5 µg/mL

Test System: Aspergillus fumigatus isolate 53 (cyp51A: Y46F/V172M/T248N/E255D/K427E/L464I)
- MIC (posaconazole): 0.75 µg/mL
- MIC (voriconazole): 0.5 µg/mL
- MIC (tebuconazole): 4 µg/mL
- MIC (itraconazole): 1.5 µg/mL

Test System: Aspergillus fumigatus isolate 54 (cyp51A: Y46F/V172M/T248N/E255D/K427E)
- MIC (posaconazole): 1 µg/mL
- MIC (voriconazole): 2 µg/mL
- MIC (tebuconazole): 8 µg/mL
- MIC (itraconazole): 4 µg/mL

Test System: Aspergillus fumigatus isolate 56 (cyp51A: WT)
- MIC (posaconazole): 1 µg/mL
- MIC (voriconazole): 2 µg/mL
- MIC (tebuconazole): 16 µg/mL
- MIC (itraconazole): 4 µg/mL

Test System: Aspergillus fumigatus isolate 58 (cyp51A: WT)
- MIC (posaconazole): 1 µg/mL
- MIC (voriconazole): 1 µg/mL
- MIC (tebuconazole): 8 µg/mL
- MIC (itraconazole): 2 µg/mL

Test System: Aspergillus fumigatus isolate 59 (cyp51A: TR34/Y46F/L98H/V172M/T248N/E255D/K427E)
- MIC (posaconazole): 1 µg/mL
- MIC (voriconazole): 4 µg/mL
- MIC (tebuconazole): 16 µg/mL
- MIC (itraconazole): > 16 µg/mL

Test System: Aspergillus fumigatus isolate 61 (cyp51A: Y46F/V172M/I242V/T248N/E255D/K427E)
- MIC (posaconazole): 1 µg/mL
- MIC (voriconazole): 1 µg/mL
- MIC (tebuconazole): 4 µg/mL
- MIC (itraconazole): 2 µg/mL

Test System: Aspergillus fumigatus isolate 62 (cyp51A: Y46F/V172M/T248N/E255D/K427E)
- MIC (posaconazole): 0.5 µg/mL
- MIC (voriconazole): 0.375 µg/mL
- MIC (tebuconazole): 1 µg/mL
- MIC (itraconazole): 1 µg/mL

Test System: Aspergillus fumigatus isolate 63 (cyp51A: Y46F/V172M/T248N/E255D/K427E)
- MIC (posaconazole): 0.5 µg/mL
- MIC (voriconazole): 1 µg/mL
- MIC (tebuconazole): 6 µg/mL
- MIC (itraconazole): 1.5 µg/mL

Test System: Aspergillus fumigatus isolate 64 (cyp51A: WT)
- MIC (posaconazole): 0.5 µg/mL
- MIC (voriconazole): 1 µg/mL
- MIC (tebuconazole): 4 µg/mL
- MIC (itraconazole): 2 µg/mL

Test System: Aspergillus fumigatus isolate 66 (cyp51A: Y46F/V172M/T248N/E255D/K427E)
- MIC (posaconazole): 0.5 µg/mL
- MIC (voriconazole): 0.5 µg/mL
- MIC (tebuconazole): 2 µg/mL
- MIC (itraconazole): 1.5 µg/mL

Test System: Aspergillus fumigatus isolate 67 (cyp51A: TR46/Y46F/Y121F/V172M/T248N/E255D/T289A/K427E)
- MIC (posaconazole): 1 µg/mL
- MIC (voriconazole): > 16 µg/mL
- MIC (tebuconazole): > 16 µg/mL
- MIC (itraconazole): 3 µg/mL

Test System: Aspergillus fumigatus isolate 68 (cyp51A: T248N/E255D)
- MIC (posaconazole): 0.5 µg/mL
- MIC (voriconazole): 0.5 µg/mL
- MIC (tebuconazole): 2 µg/mL
- MIC (itraconazole): 2 µg/mL

Test System: Aspergillus fumigatus isolate 70 (cyp51A: TR34/Y46F/L98H/V172M/T248N/E255D/K427E)
- MIC (posaconazole): 1 µg/mL
- MIC (voriconazole): 4 µg/mL
- MIC (tebuconazole): ≥ 16 µg/mL
- MIC (itraconazole): ≥ 16 µg/mL

Test System: Aspergillus fumigatus isolate 72 (cyp51A: TR34/Y46F/L98H/V172M/T248N/E255D/K427E)
- MIC (posaconazole): 1 µg/mL
- MIC (voriconazole): 4 µg/mL
- MIC (tebuconazole): > 16 µg/mL
- MIC (itraconazole): > 16 µg/mL

Test System: Aspergillus fumigatus isolate 73 (cyp51A: TR46/Y46F/Y121F/V172M/T248N/E255D/T289A/K427E)
- MIC (posaconazole): 1 µg/mL
- MIC (voriconazole): > 16 µg/mL
- MIC (tebuconazole): > 16 µg/mL
- MIC (itraconazole): 1.5 µg/mL

Test System: Aspergillus fumigatus isolate 74 (cyp51A: TR34/Y46F/L98H/V172M/T248N/E255D/K427E)
- MIC (posaconazole): 1 µg/mL
- MIC (voriconazole): 3 µg/mL
- MIC (tebuconazole): ≥ 16 µg/mL
- MIC (itraconazole): ≥ 16 µg/mL

Test System: Aspergillus fumigatus isolate 75 (cyp51A: A9T/Y46F/V172M/T248N/E255D/K427E)
- MIC (posaconazole): 0.5 µg/mL
- MIC (voriconazole): 0.5 µg/mL
- MIC (tebuconazole): 1.5 µg/mL
- MIC (itraconazole): 1 µg/mL

Test System: Aspergillus fumigatus isolate 76 (cyp51A: TR34/Y46F/L98H/V172M/T248N/E255D/K427E)
- MIC (posaconazole): 1 µg/mL
- MIC (voriconazole): 3 µg/mL
- MIC (tebuconazole): 16 µg/mL
- MIC (itraconazole): 12 µg/mL

Test System: Aspergillus fumigatus isolate 77 (cyp51A: TR34/Y46F/L98H/V172M/T248N/E255D/K427E)
- MIC (posaconazole): 1 µg/mL
- MIC (voriconazole): 4 µg/mL
- MIC (tebuconazole): 16 µg/mL
- MIC (itraconazole): 16 µg/mL

Test System: Aspergillus fumigatus isolate 78 (cyp51A: Y46F/V172M/T248N/E255D/K427E)
- MIC (posaconazole): 0.5 µg/mL
- MIC (voriconazole): 0.5 µg/mL
- MIC (tebuconazole): 2 µg/mL
- MIC (itraconazole): 2 µg/mL

Test System: Aspergillus fumigatus isolate 79 (cyp51A: TR46/Y46F/Y121F/V172M/T248N/E255D/T289A/K427E)
- MIC (posaconazole): 1 µg/mL
- MIC (voriconazole): > 16 µg/mL
- MIC (tebuconazole): > 16 µg/mL
- MIC (itraconazole): 2 µg/mL

Test System: Aspergillus fumigatus isolate 81 (cyp51A: TR34/Y46F/L98H/V172M/T248N/E255D/K427E)
- MIC (posaconazole): 1 µg/mL
- MIC (voriconazole): 4 µg/mL
- MIC (tebuconazole): 16 µg/mL
- MIC (itraconazole): 16 µg/mL

Test System: Aspergillus fumigatus isolate 82 (cyp51A: Y46F/V172M/T248N/E255D/K427E)
- MIC (posaconazole): 0.5 µg/mL
- MIC (voriconazole): 0.5 µg/mL
- MIC (tebuconazole): 3 µg/mL
- MIC (itraconazole): 2 µg/mL

Test System: Aspergillus fumigatus isolate 83 (cyp51A: T248N/E255D)
- MIC (posaconazole): 0.5 µg/mL
- MIC (voriconazole): 0.5 µg/mL
- MIC (tebuconazole): 2 µg/mL
- MIC (itraconazole): 1 µg/mL

Test System: Aspergillus fumigatus isolate 84 (cyp51A: WT)
- MIC (posaconazole): 0.5 µg/mL
- MIC (voriconazole): 1 µg/mL
- MIC (tebuconazole): 4 µg/mL
- MIC (itraconazole): 2 µg/mL

Test System: Aspergillus fumigatus isolate 86 (cyp51A: Y46F/V172M/T248N/E255D/K427E/L464I)
- MIC (posaconazole): 0.75 µg/mL
- MIC (voriconazole): 1 µg/mL
- MIC (tebuconazole): 4 µg/mL
- MIC (itraconazole): 1.5 µg/mL

Test System: Aspergillus fumigatus isolate 87 (cyp51A: T248N/E255D/K427E)
- MIC (posaconazole): 0.5 µg/mL
- MIC (voriconazole): 0.5 µg/mL
- MIC (tebuconazole): 2 µg/mL
- MIC (itraconazole): 1 µg/mL

Test System: Aspergillus fumigatus isolate 88 (cyp51A: T248N/E255D)
- MIC (posaconazole): 0.5 µg/mL
- MIC (voriconazole): 0.5 µg/mL
- MIC (tebuconazole): 3 µg/mL
- MIC (itraconazole): 1.5 µg/mL

Test System: Aspergillus fumigatus isolate 89 (cyp51A: T248N/E255D)
- MIC (posaconazole): 0.5 µg/mL
- MIC (voriconazole): 0.5 µg/mL
- MIC (tebuconazole): 1.5 µg/mL
- MIC (itraconazole): 1 µg/mL

Test System: Aspergillus fumigatus isolate 90 (cyp51A: WT)
- MIC (posaconazole): 0.75 µg/mL
- MIC (voriconazole): 1 µg/mL
- MIC (tebuconazole): 8 µg/mL
- MIC (itraconazole): 2 µg/mL

Test System: Aspergillus fumigatus isolate 91 (cyp51A: Y46F/V172M/T248N/E255D/K427E)
- MIC (posaconazole): 0.75 µg/mL
- MIC (voriconazole): 0.75 µg/mL
- MIC (tebuconazole): 6 µg/mL
- MIC (itraconazole): 2 µg/mL

Test System: Aspergillus fumigatus isolate 92 (cyp51A: Y46F/V172M/T248N/E255D/K427E/L464I)
- MIC (posaconazole): 0.75 µg/mL
- MIC (voriconazole): 1 µg/mL
- MIC (tebuconazole): 4 µg/mL
- MIC (itraconazole): 1 µg/mL

Test System: Aspergillus fumigatus isolate 93 (cyp51A: T248N/E255D)
- MIC (posaconazole): 0.5 µg/mL
- MIC (voriconazole): 1 µg/mL
- MIC (tebuconazole): 4 µg/mL
- MIC (itraconazole): 1.5 µg/mL

Test System: Aspergillus fumigatus isolate 94 (cyp51A: Y46F/V172M/T248N/E255D/K427E)
- MIC (posaconazole): 0.5 µg/mL
- MIC (voriconazole): 1 µg/mL
- MIC (tebuconazole): 4 µg/mL
- MIC (itraconazole): 2 µg/mL

Test System: Aspergillus fumigatus isolate 95 (cyp51A: T248N/E255D)
- MIC (posaconazole): 0.5 µg/mL
- MIC (voriconazole): 0.5 µg/mL
- MIC (tebuconazole): 2 µg/mL
- MIC (itraconazole): 1 µg/mL

Test System: Aspergillus fumigatus isolate 96 (cyp51A: WT)
- MIC (posaconazole): 0.5 µg/mL
- MIC (voriconazole): 0.5 µg/mL
- MIC (tebuconazole): 2 µg/mL
- MIC (itraconazole): 1 µg/mL

Test System: Aspergillus fumigatus isolate 97 (cyp51A: Y46F/V172M/T248N/E255D/K427E)
- MIC (posaconazole): 1 µg/mL
- MIC (voriconazole): 2 µg/mL
- MIC (tebuconazole): 8 µg/mL
- MIC (itraconazole): 3 µg/mL

Test System: Aspergillus fumigatus isolate 98 (cyp51A: Y46F/V172M/T248N/E255D/K427E)
- MIC (posaconazole): 0.75 µg/mL
- MIC (voriconazole): 1.5 µg/mL
- MIC (tebuconazole): 6 µg/mL
- MIC (itraconazole): 3 µg/mL

Test System: Aspergillus fumigatus isolate 99 (cyp51A: T248N/E255D)
- MIC (posaconazole): 0.5 µg/mL
- MIC (voriconazole): 0.5 µg/mL
- MIC (tebuconazole): 1.5 µg/mL
- MIC (itraconazole): 1 µg/mL

Test System: Aspergillus fumigatus isolate 100 (cyp51A: T248N/E255D)
- MIC (posaconazole): 0.5 µg/mL
- MIC (voriconazole): 0.5 µg/mL
- MIC (tebuconazole): 2 µg/mL
- MIC (itraconazole): 1 µg/mL
